Measurements taken from article PMC8340461.
Positions count from the first letter of the chain named. In names and notes the source's numbering stands. Results are given in words; binding and its absence hold for the method and conditions named. In cells and extracts the contact can be indirect. Some entries that bind do so weakly or less than the wild type. Sequences can lack the tags named with a protein.

Chains of the proteins cited; added tags and fusions are not shown. Lines headed by an entry give the natural chain unless they say otherwise; changes in a name come on top.
UniProt O43791: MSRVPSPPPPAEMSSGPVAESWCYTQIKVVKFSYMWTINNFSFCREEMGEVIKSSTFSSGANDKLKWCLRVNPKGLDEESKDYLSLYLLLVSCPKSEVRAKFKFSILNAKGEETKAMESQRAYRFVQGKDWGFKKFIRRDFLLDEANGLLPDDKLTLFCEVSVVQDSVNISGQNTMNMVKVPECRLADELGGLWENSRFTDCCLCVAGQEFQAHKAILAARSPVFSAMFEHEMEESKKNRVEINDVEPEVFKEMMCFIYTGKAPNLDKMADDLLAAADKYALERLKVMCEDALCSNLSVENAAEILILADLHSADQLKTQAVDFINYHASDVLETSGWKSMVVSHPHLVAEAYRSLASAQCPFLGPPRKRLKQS

B1: Flag-PDK1 (3-phosphoinositide-dependent protein kinase-1), wild type (protein, UniProt O15530 1-556)
chain: MARTTSQLYDAVPIQSSVVLCSCPSPSMVRTQTESSTPPGIPGGSRQGPAMDGTAAEPRPGAGSLQHAQPPPQPRKKRPEDFKFGKILGEGSFSTVVLARELATSREYAIKILEKRHIIKENKVPYVTRERDVMSRLDHPFFVKLYFTFQDDEKLYFGLSYAKNGELLKYIRKIGSFDETCTRFYTAEIVSALEYLHGKGIIHRDLKPENILLNEDMHIQITDFGTAKVLSPESKQARANSFVGTAQYVSPELLTEKSACKSSDLWALGCIIYQLVAGLPPFRAGNEYLIFQKIIKLEYDFPEKFFPKARDLVEKLLVLDATKRLGCEEMEGYGPLKAHPFFESVTWENLHQQTPPKLTAYLPAMSEDDEDCYGNYDNLLSQFGCMQVSSSSSSHSLSASDTGLPQRSGSNIEQYIHDLDSNSFELDLQFSEDEKRLLLEKQAGGNPWHQFVENNLILKMGPVDKRKGLFARRRQLLLTEGPHLYYVDPVNKVLKGEIPWSQELRPEAKNFKTFFVHTPNRTYYLMDPSGNAHKWCRKIQEVWRQRYQSHPDAAVQ
B2: PDK1 (3-phosphoinositide-dependent protein kinase-1), wild type, tag not shown (protein, UniProt O15530 1-556)
chain: B1 chain
B3: PDK1 S390L (protein, UniProt O15530 1-556)
chain: B1 chain with S390L
B4: PDK1 S394L (protein, UniProt O15530 1-556)
chain: B1 chain with S394L
B5: PDK1 S398L (protein, UniProt O15530 1-556)
chain: B1 chain with S398L
B6: PDK1 Q387H (protein, UniProt O15530 1-556)
chain: B1 chain with Q387H
B7: PDK1 Q387R (protein, UniProt O15530 1-556)
chain: B1 chain with Q387R

Legend:
[1] = target: GST-SPOP (speckle-type POZ protein), wild type (UniProt O43791); assay: condition: only cells treated with the GSK3β inhibitor CHIR-99021 (10 μM) for 10 h; pull-down; GST pull-down from whole cell lysates of transfected HEK293T cells treated with the GSK3β inhibitor CHIR-99021 (10 μM) for 10 h before harvest (Fig. 4E)
[2] = target: GST-SPOP (speckle-type POZ protein), wild type (UniProt O43791); assay: pull-down; GST pull-down from whole cell lysates of co-transfected HEK293T cells (Fig. 2B, 4A, 4E, 5D, 6B), immunoblot; MG132 (10 μM) for 10 h before harvest in Fig. 2B and 5D; λ-phosphatase on the lysates in Fig. 4A (interaction dramatically reduced); GSK3β-S9A co-expressed in Fig. 4E (interaction enhanced)
GST-SPOP F102C = GST-SPOP F102C (UniProt O43791); assay: as above
GST-SPOP F133V = GST-SPOP F133V (UniProt O43791); assay: as above
GST-SPOP Y87C = GST-SPOP Y87C (UniProt O43791); assay: as above
[3] = substrate: SPOP (speckle-type POZ protein), wild type, tag not shown (UniProt O43791); assay: co-IP; immunoprecipitation from whole cell lysates of transfected HEK293T cells (EBC buffer; washed with NETN buffer), immunoblot (Fig. 3B, 4N, 4O); MG132 (10 μM) for 10 h in Fig. 3B; Myc-CK1δ co-expressed in Fig. 4N-O

Binder | binding [2] | other results
B1 | binds | binding [1]: no binding; binding (GST-SPOP F102C): no binding; binding (GST-SPOP F133V): no binding; binding (GST-SPOP Y87C): no binding
B2 | – | binding [3]: binds
B3 | no binding | –
B4 | no binding | –
B5 | no binding | –
B6 | no binding | –
B7 | no binding | –
